Results reported in patent US20240252671A1, “NEODEGRADER-ANTI-CD33 ANTIBODY CONJUGATES” (priority 2021, published 2024).

Key:
[1] = system: CD33 positive acute myeloid leukemia cell lines; experiment: In vitro cytotoxicity, CellTiter-Glo, CD33 positive AML cell line panel (Example 6); type: cell-based, human; conditions: CD33-positive AML cells, 72 hours, FIG. 2
Experimental: (§1) In vitro cytotoxicity was measured using a panel of CD33 positive acute myeloid leukemia cell lines and a panel of non-AML CD33-negative cells. The cells, at a predetermined concentration, were plated into 96 well plates, and, after overnight incubation at 37° C./5CO2, serial dilutions of each test article (TA) were added to the cells. Cells were incubated with test articles for 72 hours, and viability was detected with CellTiter-Glo® reagent (Promega). The luminescent values were normalized for each cell line, and the IC50s were calculated using Prizm software.

[2] = system: non-AML CD33-negative cells; experiment: In vitro cytotoxicity, CellTiter-Glo, CD33-negative cell panel (Example 6); type: cell-based, human; conditions: CD33-negative cell models, 72 hours, FIG. 2
Experimental: as §1

B1: AB1—Compound (Ia) (conjugate)
heavy: QVQLQQPGAEVVKPGASVKMSCKASGYTFTSYYIHWIKQTPGQGLEWVGVIYPGNDDISYNQKFQGKATLTADKSSTTAYMQLSSLTSEDSAVYYCAREVRLRYFDVWGQGTTVTVSSASTKGPSVFPLAPCSRSTSESTAALGCLVKDYFPEPVTVSWNSGALTSGVHTFPAVLQSSGLYSLSSVVTVPSSSLGTKTYTCNVDHKPSNTKVDKRV[sequence of human IgG4 Fc with S228P (EU numbers) not given]
light: EIVLTQSPGSLAVSPGERVTMSCKSSQSVFFSSSQKNYLAWYQQIPGQSPRLLIYWASTRESGVPDRFTGSGSGTDFTLTISSVQPEDLAIYYCHQYLSSRTFGQGTKLEIKRTVAAPSVFIFPPSDEQLKSGTASVVCLLNNFYPREAKVQWKVDNALQSGNSQESVTEQDSKDSTYSLSSTLTLSKADYEKHKVYACEVTHQGLSSPVTKSFNRGEC
overall in vitro efficacy (cytotoxicity) [1]: comparable overall in vitro efficacy as CC-885 (a known GSPT1 degrader) or Mylotarg
in vitro activity (cytotoxicity) [2]: inactive
